Laboratory results from patent publication USRE43327E1, “Hydrophobic polyamine analogs and methods for their use” (Aminex Therapeutics, Inc., priority 2001, dated 2012).
pEC50: −log10 of the molar value. Several values for one entry are separate records, joined by “and”; a condition that tells them apart may be missing. Identical values can stand only once. The name of at least one read-out is uncertain.

How the values were obtained:
Assay type in all cases: cell-based
SK-OV-3 = test: Growth inhibition assay (MTS/PMS) with DFMO, SK-OV-3; settings: in the presence of DFMO (1-5 mM), 1 mM AG, 0.5 μM SPD, six days; repeat determinations; read-out: Cell Line EC50 SK-OV-3
Description: (§1) Medias were obtained from Mediatech, Inc. (Herdon, Va.) and serums from Gibco BRL (Gaithersburg, Md.). 50 U/ml penicillin, 50 μg/ml streptomycin and 2 mM L-glutamine (all from Bio Whittaker, Walkersville, Md.) were included in all cultures. […] When cells were cultured with polyamines or ORI compounds, 1 mM aminoguanidine (AG; Sigma) was included to inhibit serum amine oxidase activity.

A375 = test: Growth inhibition assay (MTS/PMS) with DFMO, A375; settings: in the presence of DFMO (1-5 mM), 1 mM AG, 0.5 μM SPD, six days; repeat determinations; read-out: Cell Line EC50 A375
Description: as §1

MDA-MB-231 = test: Growth inhibition assay (MTS/PMS) with DFMO, MDA-MB-231; settings: in the presence of DFMO (1-5 mM), 1 mM AG, 0.5 μM SPD, six days; repeat determinations; read-out: Cell Line EC50 MDA-MB-231
Description: as §1

PC-3 = test: Growth inhibition assay (MTS/PMS) with DFMO, PC-3; settings: in the presence of DFMO (1-5 mM), 1 mM AG, 0.5 μM SPD, six days; repeat determinations; read-out: Cell Line EC50 PC-3
Description: as §1

Compound: CC(C)CC(C)NCCCCC(N)C(=O)NCCCNCCCCNCCCN (single isomer, unassigned) [VA21]
- pEC50 (SK-OV-3): 5.44 and 5.51 and 5.73

Compound: CCCCCCCCCCCCCCCCCC(=O)NCCCC[C@@H](N)C(=O)NCCCNCCCCNCCCN [IB2]
- pEC50 (A375): 7.80
- pEC50 (MDA-MB-231): 7.55
- pEC50 (PC-3): 7.04
- pEC50 (SK-OV-3): 6.70

Compound: CCCCCCCCC(=O)NCCCC[C@@H](N)C(=O)NCCCNCCCCNCCCN [IB6]
- pEC50 (A375): 5.73
- pEC50 (PC-3): 5.71
- pEC50 (SK-OV-3): 5.55

Compound: CCCCCCCC(=O)NCCCC[C@@H](N)C(=O)NCCCNCCCCNCCCN [IB7]
- pEC50 (A375): 5.58 and 5.31
- pEC50 (MDA-MB-231): < 4.52 and 4.72
- pEC50 (PC-3): 5.90
- pEC50 (SK-OV-3): < 4.52 and 4.55

Compound: CCCCCCC(=O)NCCCC[C@@H](N)C(=O)NCCCNCCCCNCCCN [IB8]
- pEC50 (A375): 5.59
- pEC50 (MDA-MB-231): 5.90
- pEC50 (PC-3): 5.67
- pEC50 (SK-OV-3): 5.09

Compound: CCCCCC(=O)NCCCC[C@@H](N)C(=O)NCCCNCCCCNCCCN [IB9]
- pEC50 (A375): 5.36
- pEC50 (MDA-MB-231): 4.85
- pEC50 (PC-3): 5.41
- pEC50 (SK-OV-3): 4.63

Compound: CCCC(=O)NCCC[C@@H](N)C(=O)NCCCNCCCCNCCCN [IB10]
- pEC50 (A375): 5.44
- pEC50 (MDA-MB-231): 5.22
- pEC50 (PC-3): 5.10
- pEC50 (SK-OV-3): 4.54

Compound: NCCCNCCCCNCCCNC(=O)[C@H](N)CCCCNC(=O)c1ccccc1 [IB24]
- pEC50 (A375): < 4.52
- pEC50 (MDA-MB-231): < 4.52
- pEC50 (PC-3): < 4.52
- pEC50 (SK-OV-3): < 4.52

Compound: NCCCNCCCCNCCCNC(=O)[C@H](N)CCCCNC(=O)c1ccco1 [IB25]
- pEC50 (A375): 5.37
- pEC50 (PC-3): 5.52
- pEC50 (SK-OV-3): 4.64

Compound: NCCCNCCCCNCCCNC(=O)[C@H](N)CCCCNC(=O)c1ccc(-c2ccccc2)cc1 [IB26]
- pEC50 (MDA-MB-231): 6.03 and 6.22
- pEC50 (PC-3): 6.34 and 6.10
- pEC50 (SK-OV-3): 5.63 and 5.74

Compound: NCCCNCCCCNCCCNC(=O)[C@H](N)CCCCNC(=O)C(c1ccccc1)c1ccccc1 [IB29]
- pEC50 (MDA-MB-231): 5.47
- pEC50 (PC-3): 6.25
- pEC50 (SK-OV-3): 5.62

Compound: NCCCNCCCCNCCCNC(=O)[C@H](N)CCCCNC(=O)C12CC3CC(CC(C3)C1)C2 [IB30]
- pEC50 (A375): 6.46 and 6.68
- pEC50 (PC-3): 6.24 and 6.15

Compound: NCCCNCCCCNCCCNC(=O)[C@H](N)CCCNC(=O)C1CCCCC1 [IB32]
- pEC50 (A375): 6.17
- pEC50 (MDA-MB-231): 5.36
- pEC50 (SK-OV-3): 5.25

Compound: CC(C)C(=O)NCCCC[C@@H](N)C(=O)NCCCNCCCCNCCCN [IB33]
- pEC50 (A375): 5.58
- pEC50 (MDA-MB-231): 5.33
- pEC50 (PC-3): 5.19
- pEC50 (SK-OV-3): 4.69

Compound: CC(C)(C)C(=O)NCCCC[C@@H](N)C(=O)NCCCNCCCCNCCCN [IB34]
- pEC50 (A375): 5.20
- pEC50 (MDA-MB-231): 4.94
- pEC50 (PC-3): 5.71
- pEC50 (SK-OV-3): 4.87

Compound: CC(C)(C)CC(=O)NCCCC[C@@H](N)C(=O)NCCCNCCCCNCCCN [IB36]
- pEC50 (A375): 5.17
- pEC50 (MDA-MB-231): 4.60
- pEC50 (PC-3): 5.65
- pEC50 (SK-OV-3): 4.13

Compound: NCCCNCCCCNCCCNC(=O)[C@H](N)CCCCNC(=O)CC1CC2CCC1C2 (some centres unmarked) [IB37]
- pEC50 (A375): 4.74
- pEC50 (MDA-MB-231): 4.75
- pEC50 (PC-3): 4.41
- pEC50 (SK-OV-3): 4.19

Compound: CC(C)[C@@H]1CC[C@@H](C)C[C@H]1OCC(=O)NCCCC[C@@H](N)C(=O)NCCCNCCCCNCCCN [IB38]
- pEC50 (A375): 5.97
- pEC50 (MDA-MB-231): 4.76
- pEC50 (PC-3): 5.62
- pEC50 (SK-OV-3): 4.49

Compound: CCCCNCCCC[C@@H](N)C(=O)NCCCNCCCCNCCCN [IVB3]
- pEC50 (A375): 6.12
- pEC50 (MDA-MB-231): 5.79
- pEC50 (PC-3): 5.78
- pEC50 (SK-OV-3): 5.32

Compound: CCCCCCNCCCC[C@@H](N)C(=O)NCCCNCCCCNCCCN [IVB5]
- pEC50 (A375): 6.28
- pEC50 (PC-3): 6.53 and 6.24
- pEC50 (SK-OV-3): 5.78 and 5.72

Compound: CCCCCCCNCCCC[C@@H](N)C(=O)NCCCNCCCCNCCCN [IVB6]
- pEC50 (A375): 6.77
- pEC50 (MDA-MB-231): 6.71 and 6.47
- pEC50 (PC-3): > 7.00 and 6.74
- pEC50 (SK-OV-3): 6.32 and 6.08

Compound: CC(C)CCNCCCC[C@@H](N)C(=O)NCCCNCCCCNCCCN [IVB21]
- pEC50 (A375): 6.28 and 6.30
- pEC50 (MDA-MB-231): 6.19 and 6.06
- pEC50 (PC-3): 5.84 and 6.06
- pEC50 (SK-OV-3): 5.57 and 5.34

Compound: CC(C)(C)CCNCCCC[C@@H](N)C(=O)NCCCNCCCCNCCCN [IVB22]
- pEC50 (A375): 5.92 and 5.71
- pEC50 (SK-OV-3): 5.81 and 5.59 and 5.60

Compound: CC(C)CNCCCC[C@@H](N)C(=O)NCCCNCCCCNCCCN [IVB23]
- pEC50 (A375): 6.20 and 6.15
- pEC50 (MDA-MB-231): 5.79 and 5.74
- pEC50 (PC-3): 5.94 and 5.70
- pEC50 (SK-OV-3): 5.42 and 5.59

Compound: CC(C)(C)CNCCCC[C@@H](N)C(=O)NCCCNCCCCNCCCN [IVB24]
- pEC50 (A375): 6.20 and 6.29
- pEC50 (MDA-MB-231): 6.02 and 5.85
- pEC50 (SK-OV-3): 5.56 and 5.64

Compound: NCCCNCCCCNCCCNC(=O)[C@H](N)CCCCNCC1CC2C=CC1C2 (some centres unmarked) [IVB25]
- pEC50 (A375): 6.49 and 6.40
- pEC50 (MDA-MB-231): 6.23 and 6.03
- pEC50 (PC-3): 6.48 and 6.23
- pEC50 (SK-OV-3): 5.76 and 5.59

Compound: NCCCNCCCCNCCCNC(=O)[C@H](N)CCCCNCC1CCCCC1 [IVB27]
- pEC50 (A375): 6.85 and 6.77
- pEC50 (SK-OV-3): 6.06 and 6.05

Compound: CC(C)=CCC[C@H](C)CCNCCCC[C@@H](N)C(=O)NCCCNCCCCNCCCN [IVB28]
- pEC50 (A375): 5.31
- pEC50 (MDA-MB-231): 5.19
- pEC50 (PC-3): 4.87
- pEC50 (SK-OV-3): 4.74

Compound: NCCCNCCCCNCCCNC(=O)[C@H](N)CCCCNCc1ccc(-c2ccccc2)cc1 [IVB33]
- pEC50 (MDA-MB-231): 5.84
- pEC50 (PC-3): 6.11
- pEC50 (SK-OV-3): 5.72

Compound: CC(C)(C)CNCCCC[C@H](N)C(=O)NCCCNCCCCNCCCN [VA22]
- pEC50 (A375): 6.10 and 6.05
- pEC50 (MDA-MB-231): 5.89 and 5.62

Compound: CCCC(CCC)NCCCC[C@H](N)C(=O)NCCCNCCCCNCCCN [VA26]
- pEC50 (A375): 5.84
- pEC50 (MDA-MB-231): 5.35
- pEC50 (PC-3): 5.72
- pEC50 (SK-OV-3): 5.11

Compound: NCCCNCCCCNCCCNC(=O)[C@@H](N)CCCCNCC12CC3CC(CC(C3)C1)C2 [VA27]
- pEC50 (A375): 5.43
- pEC50 (MDA-MB-231): 4.92
- pEC50 (PC-3): 5.80
- pEC50 (SK-OV-3): 5.07

Compound: CC(C)[C@@H]1CC[C@@H](C)CC1NCCCC[C@@H](N)C(=O)NCCCNCCCCNCCCN (some centres unmarked) [VB28]
- pEC50 (A375): 6.35 and 6.52
- pEC50 (MDA-MB-231): 6.39 and 6.37
- pEC50 (PC-3): 6.12 and 6.10
- pEC50 (SK-OV-3): 5.62 and 5.77
